Among the data in US20200131269A1 (STCUBE, published 2020) are Kd, koff and kon values, retold here.

For experiment [1], the target named is T1, BTLA-His (human, UniProt Q7Z6A9 31-157, limits assumed).
T1 construct: That entry includes signal peptide, TM and cytoplasmic parts that a soluble protein would lack; also called soluble BTLA; not shown: His tag
T1 sequence: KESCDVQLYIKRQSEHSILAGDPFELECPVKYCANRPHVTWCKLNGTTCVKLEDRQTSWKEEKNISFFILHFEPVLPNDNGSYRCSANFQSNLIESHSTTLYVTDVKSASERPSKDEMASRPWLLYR
The experiment is described as follows: BLI (Octet RED96), BTN1A1-Fc on anti-hIgG Fc capture tips, BTLA-His at 0.8 µM. (Biolayer interferometry detects binding as a change in optical thickness at a sensor tip.)

In experiment [2] the target is T1, BTLA-His. The experiment is described as follows: BLI (Octet RED96), BTN1A1-Fc on anti-hIgG Fc capture tips, BTLA-His at 3.2 µM.
The target in experiment [3] is T1, BTLA-His. The experiment is described as follows: BLI (Octet RED96), BTN1A1-Fc on anti-hIgG Fc capture tips, BTLA-His at 6.4 µM.
The target of experiment [4] is T1, BTLA-His. The experiment is described as follows: BLI (Octet RED96), BTN1A1-Fc on anti-hIgG Fc capture tips, BTLA-His at 1.6 µM.

B1: BTN1A1-ECD-Fc (Fc fusion)
chain: APFDVIGPPEPILAVVGEDAELPCRLSPNASAEHLELRWFRKKVSPAVLVHRDGREQEAEQMPEYRGRATLVQDGIAKGRVALRIRGVRVSDDGEYTCFFREDGSYEEALVHLKVAALGSDPHISMQVQENGEICLECTSVGWYPEPQVQWRTSKGEKFPSTSESRNPDEEGLFTVAASVIIRDTSAKNVSCYIQNLLLGQEKKVEISIPASSLPR[sequence of human IgG1 Fc omitted]
modifications: glycosylated (so in the source); sites not stated for this construct
notes: The entry already holds the Fc; also called BTN1A1-Fc; glycosylated wild-type BTN1A1-Fc
One may read the Kd as the equilibrium constant for the complex coming apart. A high value points to weaker binding. One may read the koff as a measure of how fast the partners let go of each other. As usually defined, the kon is the rate constant with which the complex forms. Read a low kon as slower complex formation. Consider B1, for which the Kd in experiment [1] amounted to 9530 nM; in experiment [2] it was 579 nM; in experiment [3] it was 843 nM; in experiment [4], 724 nM. In addition, the koff in experiment [1] is 0.000761 s⁻¹; in experiment [2], 0.000728 s⁻¹; in experiment [3], 0.000778 s⁻¹; in experiment [4], 0.00119 s⁻¹. The kon in experiment [2] was 1260 M⁻¹ s⁻¹; in experiment [3], 923 M⁻¹ s⁻¹; in experiment [4] it was 1650 M⁻¹ s⁻¹.
